Assay results taken from the antibiotic and cytotoxicity screens of Wong et al. (2023).
The list shows a part of the results.

Columns and labels:
HSkMC = human skeletal muscle cells; experiment: cytotoxicity call (relative viability < 0.9); conditions: 10 µM
HepG2 = experiment: cytotoxicity call (relative viability < 0.9); conditions: 10 µM
S. aureus RN4220 = experiment: growth inhibition call (relative growth <= 0.2); conditions: 50 µM

O=C(C[C@H]1C[C@H]2c3cc(NC(=O)Cc4ccncc4)ccc3O[C@H]2[C@H](CO)O1)NCCN1CCCCC1
inactive: cytotoxicity call (HSkMC) | cytotoxicity call (HepG2) | growth inhibition call (S. aureus RN4220)

C[C@H]1CCCCO[C@H](CN(C)C(=O)CCC(F)(F)F)[C@@H](C)CN([C@@H](C)CO)C(=O)c2cc(NC(=O)NC3CCCCC3)ccc2O1
inactive: cytotoxicity call (HSkMC) | cytotoxicity call (HepG2) | growth inhibition call (S. aureus RN4220)

CC(C)NC(=O)N(C)C[C@H]1Oc2ccc(NC(=O)Nc3ccc4c(c3)OCO4)cc2C(=O)N([C@@H](C)CO)C[C@H]1C
inactive: cytotoxicity call (HSkMC) | cytotoxicity call (HepG2) | growth inhibition call (S. aureus RN4220)

COc1ccc(S(=O)(=O)N(C)C[C@@H]2OCCCC[C@@H](C)Oc3ccc(NC(=O)CCC(F)(F)F)cc3C(=O)N([C@H](C)CO)C[C@@H]2C)cc1
inactive: cytotoxicity call (HSkMC) | cytotoxicity call (HepG2) | growth inhibition call (S. aureus RN4220)

Nc1ccc(S(=O)(=O)[N-]c2cnc3ccccc3n2)cc1.[Na+]
inactive: cytotoxicity call (HSkMC) | cytotoxicity call (HepG2) | growth inhibition call (S. aureus RN4220)

C[C@H](CO)N1C[C@H](C)[C@@H](CN(C)S(=O)(=O)c2ccccc2)Oc2ccc(NC(=O)CCC(F)(F)F)cc2CC1=O
inactive: cytotoxicity call (HSkMC) | cytotoxicity call (HepG2) | growth inhibition call (S. aureus RN4220)

O=C(C[C@H]1CC[C@H]2[C@@H](COC[C@H](O)CN2Cc2ccccc2F)O1)N[C@@H]1CCN(Cc2ccccc2)C1
inactive: cytotoxicity call (HSkMC) | cytotoxicity call (HepG2) | growth inhibition call (S. aureus RN4220)

O=C(Cc1ccncc1)Nc1ccc2c(c1)[C@H]1C[C@@H](CC(=O)N3CCc4ccccc4C3)O[C@H](CO)[C@H]1O2
inactive: cytotoxicity call (HSkMC) | cytotoxicity call (HepG2) | growth inhibition call (S. aureus RN4220)

CN(C)CC(=O)N[C@@H]1CC[C@H](CC(=O)NCCN2CCCCC2)O[C@H]1CO
inactive: cytotoxicity call (HSkMC) | cytotoxicity call (HepG2) | growth inhibition call (S. aureus RN4220)
